# Out of some 360,000 compounds screened, about 6,000 (1.7%) were called active. The inconclusive results got no clear call from the source; some entries with a clear call stand among them for comparison. Calls follow the shape of the dose curve; as a rule, active = well fitted cell-killing curve with a large enough effect; inconclusive = small, poorly fitted or top-dose-only effect, or effect the other way; inactive = flat fitted curve, though single readings scatter. Potencies of inconclusive entries are left out as doubtful fits.
# Assay: qHTS for induction of synthetic lethality in tumor cells producing 2HG: qHTS for the HT-1080-NT fibrosarcoma cell line;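 also: NT is the 2HG producing partner of a matched IDH1 knockdown line; nearly all actives have a fitted effect of over 55% in size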;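 as to activity, negative = less viability: 0% = DMSO-treated cells and -100% = media-only wells without cells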
# Conditions: HT-1080-NT fibrosarcoma viability, CellTiter-Glo ATP luminescence, 48 h; activity, negative = less viability: at 46.1 µM (top of the series) unless noted
# Method in brief: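 Viability of the 2HG-overproducing fibrosarcoma line after 48 hours of compound exposure at 37 degrees C was determined by luminescence with CellTiter-Glo, and concentration-effect curves were then fitted and categorized.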
# Potency is read from the fitted curve at half-maximal effect; tags tell the direction and shape of the fitted curve.
Structure (SMILES),Potency,"activity, negative = less viability"
COc1cccc(CN(C)C(=O)C(CCSC)NS(=O)(=O)c2ccc3c(c2)OCCO3)c1OC (configuration not stated),"inconclusive [cytotoxic, partial curve]",–
OC1(c2cccs2)CN(c2ccc(Br)cc2)C2=[N+]1CCCS2 (configuration not stated),"inconclusive [cytotoxic, single point]",–
COC(=O)CC1N(S(=O)(=O)c2ccc(C)cc2)c2ccccc2C1(C(=O)OC)C(=O)OC (configuration not stated),inactive,–
CS(=O)(=O)Nc1cccc(NC(=O)C2Cc3c(-c4ccco4)ccnc3O2)c1 (configuration not stated),active: 18.4 µM,–
C=CCNC(=O)/C(C#N)=C/c1cc(Br)ccc1OC,active: 20.6 µM,–
CCCC(=O)Nc1sc(C(=O)Nc2cccc(N)c2)c(C)c1C(=O)OC,"inconclusive [cytotoxic, full curve, poor fit]",–
NS(=O)(=O)c1ccc(N=Nc2c(O)ccc3ccccc23)cc1,–,inconclusive: -0.405%
CCC(=O)N1CCc2cc(-c3csc(NC(=O)c4ccco4)n3)ccc21,"inconclusive [rising, partial curve]",–
O=C(NNC(=O)c1ccc(F)c(S(=O)(=O)N2CCOCC2)c1)c1ccc([N+](=O)[O-])cc1,–,inconclusive: -0.361% [cytotoxic]
COc1ccc(C#Cc2cccc(-c3nc(C(=O)NCc4ccc(Oc5ccccc5)cc4)cc4c3[C@@H](CCO)N(S(=O)C(C)(C)C)C4)c2)cc1OC (some centres not stated),active: 20.6 µM,–
COc1ccccc1-c1cc(NC=O)c2ncc(-c3ccc(F)cc3)n2c1,"inconclusive [cytotoxic, partial curve]",–
Cc1cc(C(=O)c2ccc(Cl)cc2)c(NC(=O)CCl)s1,"inconclusive [cytotoxic, single point]",–
NC1=NC(=O)S/C1=C\c1ccc(F)cc1,active: 23.1 µM,–
COc1ccc(-n2c(=O)cc(N3CC(C)OC(C)C3)[nH]c2=O)cc1 (configuration not stated),inactive,–
O=[N+]([O-])c1cc(S(=O)(=O)NC2=NCCCCC2)ccc1NCC1CCCCC1,"inconclusive [cytotoxic, single point]",–
COc1ccc(C(=O)N2CCN(S(=O)(=O)c3ccc4c(c3)OCCO4)CC2)cc1,inactive,–
CC(=O)Nc1cc[n+](CC(=O)c2ccc(Cl)cc2)cc1,inactive,–
COc1ccc(C(=O)Nc2cc(Cl)ccc2Cl)c(OC)n1,"inconclusive [rising, full curve, poor fit]",–
O=C(NC1CCCCC1)C(c1ccc2ncccc2c1)N(Cc1ccccc1)C(=O)c1ccc2c(c1)OCCO2 (configuration not stated),"inconclusive [cytotoxic, single point]",–
COc1cc(OC)nc(Oc2ccccc2C=O)n1,"inconclusive [cytotoxic, single point]",–
O=C1c2ccccc2C(=O)C1c1ccc2ccccc2n1,"inconclusive [cytotoxic, partial curve]",–
O=C(c1ccncc1)N(Cc1cc2ccccc2[nH]c1=O)C1CCCCC1,active: 7.08 µM,–
COc1cc(CNCc2ccncc2)cc(Br)c1OCc1ccccc1F,"inconclusive [cytotoxic, single point]",–
N#CC1=C(N)Oc2cc(N)ccc2C1C1CC=CCC1 (configuration not stated),"inconclusive [cytotoxic, single point]",–

Structure (SMILES),Potency,"activity, negative = less viability"
C=C(C(=O)c1ccccc1)C(C)C(=C)C(=O)c1ccccc1,active: 8.2 µM,–
Cc1nc(-c2ccc(S(=O)(=O)Oc3ccc(Cl)cc3Cl)s2)cs1,"inconclusive [cytotoxic, single point]",–
O=C(NCC(c1cccs1)N1CCOCC1)c1ccccc1NS(=O)(=O)c1cc([N+](=O)[O-])ccc1Cl (configuration not stated),inactive,–
C=CCC1CCCCC12NC(=O)N(c1ccccc1)N2 (configuration not stated),"inconclusive [cytotoxic, partial curve]",–
CC(O)(c1ccccc1)c1nc(-c2ccc(F)c(Cl)c2)cs1 (configuration not stated),"inconclusive [cytotoxic, single point]",–
O=C(N/N=C/c1ccc([N+](=O)[O-])s1)C(O)c1ccccc1 (configuration not stated),"inconclusive [cytotoxic, partial curve]",–
O=C1CN(/N=C/c2ccc([N+](=O)[O-])o2)C(=O)N1,"inconclusive [cytotoxic, single point]",–
O=C(NCCCn1ccnc1)c1cc2nc(-c3ccc(Br)cc3)cc(C(F)(F)F)n2n1,active: 23.1 µM,–
CC1(C)NC(=O)N(CC(=O)OCC(=O)c2ccc(F)cc2)C1=O,inactive,–
CCN(CC)CC(=O)c1ccc(-c2ccccc2)cc1,"inconclusive [cytotoxic, single point]",–
COc1cccc(NC(=S)N(Cc2cccc(Br)c2)CC2CCC(C(=O)O)CC2)c1 (configuration not stated),"inconclusive [rising, single point]",–
CS(=O)(=O)c1ccc(C(=O)OCC(=O)NC(=O)C2CCCCC2)cc1[N+](=O)[O-],"inconclusive [cytotoxic, single point]",–
Cn1nccc1C(=O)NC1CCCc2c1cnn2-c1ccc(C(C)(C)C)cc1 (configuration not stated),active: 1.3 µM,–
COc1ccc(-c2ccc(C(=O)NCc3ccccc3)c3occc23)c(C)c1,"inconclusive [cytotoxic, single point]",–
COc1ccc(CNC(=O)COc2ccc(S(=O)(=O)N3CCCCC3)cc2Cl)cc1,–,inconclusive: -32.1% [cytotoxic]
NC(=O)CC(O)c1cccc(Cl)c1 (configuration not stated),inactive,–
CCn1c(=N)n(CCO)c2ccccc21,inactive,–
CCOC(=O)c1sc(N=NC2=C(O)CCCC2=O)c(C(=O)OCC)c1C,inactive,–
CC(=O)NC(c1ccc(Cl)cc1)c1ccc2cccnc2c1O (configuration not stated),"inconclusive [cytotoxic, full curve]",–
COc1ccc(C2CC(=O)N(C)c3ccccc3S2)cc1 (configuration not stated),inactive,–
CCC(=O)N(C)C[C@@H]1Oc2ncc(Br)cc2C(=O)N([C@@H](C)CO)C[C@H]1C,"inconclusive [rising, single point]",–
CCCCC[C@@H](C)N1C[C@H](COCc2ccccc2)Oc2cc(N3CC[C@H](N(C)C)C3)ccc2S1(=O)=O,active: 20.6 µM,–
O=C1NC[C@@H](CCCCN2C[C@H](Cc3ccc(O)cc3)N(CCC3CCCCC3)C(=O)C2=O)N(Cc2ccccc2)C1=O,"inconclusive [cytotoxic, single point]",–
O=C(COC(=O)c1ccc(CSc2ccc(Cl)cc2)cc1)Nc1ccccc1,inactive,–

Structure (SMILES),Potency,"activity, negative = less viability"
c1ccc(-c2ccc(-c3cnc4n3CCCCC4)cc2)cc1,"inconclusive [cytotoxic, single point]",–
O=C1CC(c2cccc([N+](=O)[O-])c2)c2ccc3ccccc3c2N1 (configuration not stated),"inconclusive [cytotoxic, single point]",–
COc1cccc(C(=O)Nc2ccc(NC(=O)c3ccco3)nc2)c1,inactive,–
COc1ccccc1Cc1c(-c2ccc(C#N)cc2)nc2ccc(C)cn12,"inconclusive [cytotoxic, single point]",–
COC(=O)CCN1CCc2cc(N=Nc3ccc([N+](=O)[O-])cc3)ccc21,"inconclusive [rising, single point]",–
CC(=O)N1c2ccc(S(=O)(=O)NCCc3ccccc3)cc2CC1C (configuration not stated),"inconclusive [cytotoxic, single point]",–
CCc1nn(C(C)C(=O)NCCN2CCN(c3cccc(C)c3C)CC2)c(=O)c2cc3occc3n12 (configuration not stated),"inconclusive [cytotoxic, single point]",–
COCc1ccc(C(=O)NCC2(N3CCCCC3)CCCCC2)cc1,"inconclusive [rising, single point]",–
Fc1ccc(Nc2ccnc(Nc3ccc(F)cc3)n2)cc1,"inconclusive [cytotoxic, single point]",–
CCCCCCCCCC(=O)N/N=C(\C)c1cccnc1,inactive,–
COc1cccc(/C=C/C(=O)c2cccc([N+](=O)[O-])c2)c1OC,active: 23.1 µM,–
Cc1csc(NC(=O)CSc2nnc3c4ccccc4nc(C(C)(C)C)n23)n1,active: 5.01 µM,–
O=C(CSc1nncn1-c1ccccc1)Nc1cc(F)ccc1F,"inconclusive [cytotoxic, single point]",–
COc1ccc(Cl)cc1NC(=S)Nc1cccnc1,inactive,–
Cc1cc(C)nc(N/N=C/c2ccccc2OCc2cccc(Br)c2)n1,"inconclusive [cytotoxic, single point]",–
Cc1ccccc1C1CC(=O)Oc2cc(O)ccc21 (configuration not stated),inactive,–
CCc1nnc(NC(=O)c2nc(S(=O)(=O)Cc3cccc(C)c3)ncc2Cl)s1,active: 23.1 µM,–
Cn1c(CN2CCCCC2)nc2cc(NC(=O)c3cccc(Br)c3)ccc21,"inconclusive [cytotoxic, single point]",–
CCOc1ccccc1Oc1cn[nH]c1-c1ccc(OC)cc1O,"inconclusive [cytotoxic, single point]",–
COc1cc(SC)ccc1C(=O)NC(C)C,–,inconclusive: 35.4%
Cc1ccc(NC(=O)Nc2ccc(Cl)cc2)c(Br)c1,"inconclusive [cytotoxic, single point]",–
Cc1ccc(C(=C2C3C=CC2C2C(=O)NC(=O)C32)c2ccc(C)cc2)cc1 (configuration not stated),"inconclusive [cytotoxic, single point]",–
S=C(NCCc1ccccc1)N1CCn2cccc2C1c1ccncc1 (configuration not stated),"inconclusive [cytotoxic, single point]",–
Cc1ccc2cccc(SCC(=O)Nc3ccc(F)cc3)c2n1,"inconclusive [cytotoxic, single point]",–

# — PubChem BioAssay AID686970 (National Center for Advancing Translational Sciences (NCATS), 2013)
